In all, about 18,000 sequences were measured (“TetR repression strength (sort-seq, GFP reporter)”: median about 0.23, highest 2% from about 0.68 on). The list shows a part of the results.

The target of the experiment is TetR (class B, Tn10) (UniProt P04483). As to the kind of experiment: TetR repression strength (sort-seq, GFP reporter) (relative to tetO2 = 1); higher = stronger repression. Particulars: E. coli. The essentials: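 Repression strength was calculated by subtracting the read-weighted mean bin from the top bin index plus one and dividing by the unaltered operator's value. The plasmid library was low-copy in E. coli SIG10-MAX, with eight randomized operator positions between a constitutive promoter and sfGFP and constitutive TetR. Cultures grew 5 h at 37 °C in LB containing 50 µg/mL chloramphenicol before 10^6 cells were sorted by FACS into 13 fluorescence bins, each sequenced on Illumina. Three independent transformations were averaged for members having ≥30 reads in all replicates and a CV ≤0.5.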
UniProt P04483, sequence (P04483 whole entry): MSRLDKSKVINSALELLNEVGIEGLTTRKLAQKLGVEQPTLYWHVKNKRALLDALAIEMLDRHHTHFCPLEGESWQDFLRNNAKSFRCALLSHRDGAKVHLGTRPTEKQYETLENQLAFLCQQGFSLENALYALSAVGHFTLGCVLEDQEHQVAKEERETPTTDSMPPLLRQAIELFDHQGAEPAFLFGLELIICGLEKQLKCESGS
For the sequence TCCCTCTTAGTAAAAGAGA, the TetR repression strength turned out to be 0.342.

With TCCCTGAGAGTGAGTGAGA, the TetR repression strength came to 0.0407.

In the case of TCCCTTAAAGTTAATGAGA, the TetR repression strength was 0.194.

In turn, TCCCTGGGAGTGAGGGAGA returned a TetR repression strength of 0.183.

As to TCCCTAATAGTACTTGAGA, the TetR repression strength was 0.287.

TCCCTGCTAGTTCTCGAGA had a TetR repression strength of 0.337.

TCCCAGGGAGTTATCGAGA: the TetR repression strength worked out at 0.145.

TCCCTATAAGTAGAAGAGA gave a TetR repression strength of 0.236.

In the case of TCCCAGGCAGTGGTAGAGA, the TetR repression strength worked out at 0.276.

Sequence TCCCTCGAAGTCTAAGAGA registered a TetR repression strength of 0.171.

Regarding TCCCGGAGAGTGATAGAGA, the TetR repression strength amounted to 0.308.

TCCCTGAAAGTGAGTGAGA had a TetR repression strength of 0.249.

As for TCCCTCCAAGTATCGGAGA, the TetR repression strength amounted to 0.274.

Consider TCCCCAGAAGTTCGCGAGA, for which the TetR repression strength was found to be 0.192.

The sequence TCCCTGTGAGTGCTCGAGA showed a TetR repression strength of 1.14.

TCCCGACGAGTATGGGAGA gave a TetR repression strength of 0.148.

As for TCCCGTTAAGTGTATGAGA, the TetR repression strength was determined as 0.404.

Sequence TCCCAGGCAGTGTCGGAGA returned a TetR repression strength of 0.225.

With TCCCTGAGAGTAGTGGAGA, the TetR repression strength stood at 0.12.

TCCCAGATAGTACATGAGA returned a TetR repression strength of 0.298.

As for TCCCTAACAGTGGGGGAGA, the TetR repression strength came to 0.308.

TCCCTTGCAGTGCTAGAGA: the TetR repression strength was found to be 0.498.

Regarding TCCCCATGAGTTTGCGAGA, the TetR repression strength is 0.317.

TCCCGGTGAGTGCGGGAGA: the TetR repression strength was found to be 0.191.

On to TCCCGACAAGTACCGGAGA, for which the TetR repression strength was 0.272.

Consider TCCCTGTGAGTCAGGGAGA, for which the TetR repression strength was 0.207.

TCCCTTACAGTGTGGGAGA yielded a TetR repression strength of 0.204.

Sequence TCCCGCACAGTGGGTGAGA came in with a TetR repression strength of 0.241.

With TCCCTGGTAGTTGTAGAGA, the TetR repression strength turned out to be 0.0495.

Take TCCCTTGAAGTTGGAGAGA: the TetR repression strength was found to be 0.261.

As to TCCCGGCTAGTTGACGAGA, the TetR repression strength came out at 0.0531.

As to TCCCGCCCAGTGCTGGAGA, the TetR repression strength came out at 0.159.

For TCCCCGTGAGTAGGTGAGA, the TetR repression strength was 0.138.

TCCCTGAGAGTGGGGGAGA: the TetR repression strength amounted to 0.176.

As to TCCCTTTAAGTGAGAGAGA, the TetR repression strength was 0.474.

Take TCCCGCGTAGTGAGGGAGA: the TetR repression strength amounted to 0.0936.

Sequence TCCCTGATAGTGGAGGAGA yielded a TetR repression strength of 0.06.

Consider TCCCACTCAGTTTGTGAGA, for which the TetR repression strength turned out to be 0.175.

Sequence TCCCCGCTAGTCCGCGAGA returned a TetR repression strength of 0.14.

In turn, TCCCACGAAGTGACGGAGA gave a TetR repression strength of 0.182.

TCCCCGCCAGTGATCGAGA registered a TetR repression strength of 0.441.

In turn, TCCCGGCCAGTGACAGAGA gave a TetR repression strength of 0.437.

In the case of TCCCGCGTAGTAACGGAGA, the TetR repression strength turned out to be 0.0703.

TCCCCAACAGTGTATGAGA returned a TetR repression strength of 0.16.

For TCCCAGCGAGTTGACGAGA, the TetR repression strength came to 0.197.

For the sequence TCCCTCGTAGTAGTGGAGA, the TetR repression strength stood at 0.358.

In the case of TCCCAATAAGTGTAAGAGA, the TetR repression strength stood at 0.21.

TCCCCTTCAGTTTATGAGA came in with a TetR repression strength of 0.311.

For TCCCCGAGAGTGGCAGAGA, the TetR repression strength came to 0.284.

With TCCCTAGTAGTCTATGAGA, the TetR repression strength was 0.142.

In turn, TCCCTTTCAGTACCTGAGA gave a TetR repression strength of 0.315.

TCCCCTCAAGTTATTGAGA came in with a TetR repression strength of 0.471.

Take TCCCGGTTAGTGGACGAGA: the TetR repression strength was 0.165.

As to TCCCAGGTAGTCTCAGAGA, the TetR repression strength is 0.253.

For TCCCATCTAGTGGCAGAGA, the TetR repression strength was 0.547.

TCCCGAGGAGTTATTGAGA: the TetR repression strength was 0.242.

Take TCCCGTGCAGTTAAGGAGA: the TetR repression strength is 0.323.

TCCCTCTCAGTCGAGGAGA displayed a TetR repression strength of 0.138.

In turn, TCCCCGCAAGTGGGAGAGA gave a TetR repression strength of 0.263.

Turning to TCCCAGGCAGTAACGGAGA, the TetR repression strength came to 0.256.

In turn, TCCCGTGGAGTGTCAGAGA showed a TetR repression strength of 0.174.

Consider TCCCCGGTAGTGGAGGAGA, for which the TetR repression strength amounted to 0.207.

On to TCCCGCGGAGTGCGCGAGA, for which the TetR repression strength was 0.16.

In turn, TCCCGGACAGTGTAGGAGA came in with a TetR repression strength of 0.295.

TCCCCATGAGTCTCCGAGA gave a TetR repression strength of 0.603.

Consider TCCCTGATAGTCAAGGAGA, for which the TetR repression strength amounted to 0.426.

In turn, TCCCCGTTAGTCGTGGAGA showed a TetR repression strength of 0.212.

Turning to TCCCCTGAAGTGTGGGAGA, the TetR repression strength was found to be 0.196.

TCCCCGTTAGTTGGAGAGA had a TetR repression strength of 0.45.

Turning to TCCCGTGTAGTGGGAGAGA, the TetR repression strength was 0.239.

The sequence TCCCGGATAGTTCGCGAGA registered a TetR repression strength of 0.305.

For TCCCGTGAAGTATGCGAGA, the TetR repression strength came to 0.122.

In the case of TCCCCAAAAGTGAGCGAGA, the TetR repression strength was found to be 0.305.

Sequence TCCCGAAAAGTGGACGAGA displayed a TetR repression strength of 0.162.

TCCCGTGGAGTTTCGGAGA gave a TetR repression strength of 0.203.

Sequence TCCCTGGGAGTGGCGGAGA gave a TetR repression strength of 0.183.

For TCCCATCCAGTGCAGGAGA, the TetR repression strength came to 0.0404.

TCCCGTATAGTTCATGAGA came in with a TetR repression strength of 0.254.

Take TCCCGTCCAGTACTAGAGA: the TetR repression strength was 0.168.

For the sequence TCCCTGGCAGTCATGGAGA, the TetR repression strength was found to be 0.219.

TCCCGGCTAGTAGATGAGA yielded a TetR repression strength of 0.156.

Sequence TCCCTATTAGTATCAGAGA had a TetR repression strength of 0.582.

The sequence TCCCTGCGAGTGTACGAGA had a TetR repression strength of 0.0723.

Sequence TCCCATGAAGTGTAGGAGA displayed a TetR repression strength of 0.114.

As to TCCCGGTAAGTATAGGAGA, the TetR repression strength came to 0.323.

In turn, TCCCCTGCAGTGGAGGAGA gave a TetR repression strength of 0.128.

TCCCATCTAGTTGGCGAGA: the TetR repression strength was 0.829.

Consider TCCCTTAGAGTTGCCGAGA, for which the TetR repression strength is 0.152.

As to TCCCCCGCAGTGTATGAGA, the TetR repression strength worked out at 0.254.

The sequence TCCCCAAGAGTATAGGAGA registered a TetR repression strength of 0.0765.

For the sequence TCCCAATTAGTCCGAGAGA, the TetR repression strength was found to be 0.35.

TCCCTCATAGTTGATGAGA returned a TetR repression strength of 0.247.

As to TCCCGGGTAGTTCAAGAGA, the TetR repression strength amounted to 0.155.

Turning to TCCCGGAAAGTCAGTGAGA, the TetR repression strength was determined as 0.0589.

Consider TCCCAAGGAGTGCAGGAGA, for which the TetR repression strength was found to be 0.0841.

TCCCGTCGAGTTCCGGAGA yielded a TetR repression strength of 0.977.

The sequence TCCCCCAAAGTCTGGGAGA registered a TetR repression strength of 0.13.

TCCCTGACAGTTGGAGAGA had a TetR repression strength of 0.485.

As for TCCCGGTCAGTGTGGGAGA, the TetR repression strength was 0.297.

The sequence TCCCTAACAGTAGTGGAGA came in with a TetR repression strength of 0.2.

The sequence TCCCTTTAAGTCCTGGAGA yielded a TetR repression strength of 0.349.

TCCCTGCTAGTGGCGGAGA had a TetR repression strength of 0.29.

Take TCCCACCGAGTTAGCGAGA: the TetR repression strength was 0.15.

The sequence TCCCTCGTAGTGTGCGAGA gave a TetR repression strength of 0.28.

The sequence TCCCGACGAGTGTTTGAGA gave a TetR repression strength of 0.321.

On to TCCCTCCCAGTGTTTGAGA, for which the TetR repression strength is 0.3.

TCCCACGGAGTGCGCGAGA gave a TetR repression strength of 0.155.

As for TCCCGGAGAGTATCCGAGA, the TetR repression strength amounted to 0.313.

Turning to TCCCGAAAAGTCATTGAGA, the TetR repression strength is 0.297.

In the case of TCCCTTCGAGTTACGGAGA, the TetR repression strength is 0.247.

With TCCCAGATAGTCGAAGAGA, the TetR repression strength worked out at 0.115.

TCCCAGCAAGTTAGGGAGA yielded a TetR repression strength of 0.383.

TCCCATCCAGTGGGGGAGA yielded a TetR repression strength of 0.175.

In the case of TCCCATTCAGTGGTAGAGA, the TetR repression strength is 0.449.

Turning to TCCCGGCGAGTGTTTGAGA, the TetR repression strength came out at 0.283.

As for TCCCGCATAGTCAATGAGA, the TetR repression strength was found to be 0.256.

TCCCTGGTAGTTGCTGAGA displayed a TetR repression strength of 0.189.

TCCCTTAGAGTTCTCGAGA displayed a TetR repression strength of 0.418.

TCCCACAAAGTCAGTGAGA returned a TetR repression strength of 0.0709.

As to TCCCGGACAGTGTTCGAGA, the TetR repression strength is 0.142.

Turning to TCCCCGTCAGTATGAGAGA, the TetR repression strength is 0.

TCCCGTCCAGTATGTGAGA came in with a TetR repression strength of 0.196.

TCCCTCTGAGTGAAAGAGA gave a TetR repression strength of 0.236.

Sequence TCCCAGGTAGTATAGGAGA had a TetR repression strength of 0.265.

TCCCGGAGAGTCAATGAGA had a TetR repression strength of 0.18.

In turn, TCCCCGGAAGTCTAGGAGA had a TetR repression strength of 0.113.

In turn, TCCCACTGAGTGCAAGAGA registered a TetR repression strength of 0.326.

The sequence TCCCCGCAAGTATATGAGA gave a TetR repression strength of 0.408.

As for TCCCTTGCAGTCTGGGAGA, the TetR repression strength stood at 0.219.

For TCCCACATAGTAGATGAGA, the TetR repression strength came out at 0.272.
